Measured values as given in PubChem BioAssay AID1508642 (National Center for Advancing Translational Sciences (NCATS), 2021).
Screen size: about 43,000 compounds; about 200 (0.47%) were called active. About 12% were inconclusive and are not listed. Calls come from the whole dose curve; as a rule, active = well fitted cell-killing curve with a large enough effect; inconclusive = small, poorly fitted or top-dose-only effect, or effect the other way; inactive = flat fitted curve, though single readings scatter. Some of the results follow.

Assay: Cell viability qHTS assay in S16 Pmp22-F2sN cells; note: nearly all actives have a fitted effect of over 65% in size
Details: S16 Pmp22-F2sN Schwann cells (luciferase reporters placed in the Pmp22 gene) viability, CellTiter-Glo, 24 h; series mostly up to 57.5 µM; activity change, negative = cytotoxicity: at the top concentration
Outline: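 Luminescence from CellTiter-Glo, read by CCD camera after a 15 min room-temperature incubation, served as the viability signal. Reporter Schwann cells (S16 Pmp22-F2sN) had been treated with pin-transferred compounds for 24 h at 37C.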
% is set by controls: 0 for no effect and ±100 for the full control effect; potency is the fitted concentration of half-maximal effect.

SMILES | activity change, negative = cytotoxicity | Potency
COc1ccccc1NC(=O)Cn1ccn(-c2cc(C)cc(C)c2)c(=O)c1=O | inactive: 4.27% | –
Cn1nc(C(=O)NCc2ccccc2)c2c1-c1ccccc1S(=O)(=O)C2 | inactive: -6.44% | –
CCOc1cccc(NC(=O)C2CC(=O)N(C)C(=Nc3ccc(OC)cc3)S2)c1 (stereo unspecified) | inactive: 8.52% | –
CCOc1ccccc1Oc1nc(C)nc2c1oc1ccccc12 | inactive: -19.4% | –
Clc1ccccc1CSc1nc(NCCc2ccccc2)c2ccccc2n1 | inactive: -21.9% | –
N#Cc1c(C(F)(F)F)cc(-c2cccs2)nc1SCc1ccccc1F | inactive: 4.99% | –
CCOC(=O)C1CCN(c2ncnc3c2c(-c2ccccc2)cn3-c2ccc(Cl)cc2)CC1 | inactive: 16.1% | –
CCOC(=O)c1c(C)[nH]c(C)c1S(=O)(=O)NCC(=O)NCc1ccccc1C | inactive: 0.993% | –
CCC(=O)N1c2ccccc2CC1C(=O)N1CCN(c2ccccc2F)CC1 (stereo unspecified) | inactive: 3.77% | –
Cc1ccc(NC(=O)Cn2c(=O)n(CCCCC(=O)NCc3ccc4c(c3)OCO4)c(=O)c3ccccc32)cc1 | inactive: 22.6% | –
CCN(Cc1ccccc1)C(=O)Cn1ncc2c(=O)oc3ccc(C)cc3c21 | inactive: -1.23% | –
Cc1cccc(N2CCN(C(=O)c3ccc4c(c3)N(Cc3cccc(Cl)c3)C(=O)c3ccccc3S4(=O)=O)CC2)c1C | inactive: -5.59% | –
CCOc1ccc(NC(=O)CCc2nnc3n(C)c(=O)c4sccc4n23)cc1 | inactive: 17.5% | –
O=C(CSc1ncc2c(n1)-c1ccccc1N(Cc1ccc(Cl)cc1)S2(=O)=O)c1ccccc1 | inactive: 3.92% | –
Cc1cccc(C(=O)NNc2ncnc3c2cnn3-c2ccc(C)c(Cl)c2)c1 | inactive: 10.5% | –
CC(CNC(=O)CCCn1c(=O)c2cccn2c2ccc(F)cc21)c1ccccc1 (stereo unspecified) | inactive: -14.1% | –
Cc1ccc(-c2nc(CS(=O)CC(=O)NCCc3ccc(Cl)cc3)c(C)o2)cc1 (stereo unspecified) | inactive: 7.55% | –
COc1cc(NC(=O)C2Cc3ccccc3N2C(=O)c2ccccc2)cc(OC)c1 (stereo unspecified) | inactive: -16.8% | –
COc1ccc(N2CCN(c3ncnc4c3nnn4C)CC2)cc1 | inactive: -18.8% | –
COC(=O)c1cc2sccc2n1CC(=O)Nc1cc(Cl)ccc1OC | inactive: -25.1% | –
CCOc1ccc(-n2nc(CO)c(C(=O)NCC(C)O)n2)cc1 (stereo unspecified) | inactive: -4.69% | –
COc1ccc(OCCn2nnc3sc4c(c3c2=O)CCCC4)cc1 | inactive: -7.4% | –
COc1ccc2c(CNCCc3cccs3)c(C(=O)O)n(Cc3cccc(F)c3)c2c1 | inactive: -6.97% | –
COc1cc(OC)c(NC(=O)C2CCN(S(=O)(=O)c3ccc4c(c3)oc(=O)n4C)CC2)cc1Cl | inactive: 12% | –

SMILES | activity change, negative = cytotoxicity | Potency
Cc1ccc(CNC(=O)CN2CCN(Cc3ccc(F)cc3Cl)C2=O)cc1 | inactive: 16.7% | –
CCc1ccc(S(=O)(=O)c2cn(CC)c3cc(N4CCCCC4)c(F)cc3c2=O)cc1 | inactive: 3.76% | –
COc1ccc2nc(NC(=O)c3cc(=O)c4cc(C)cc(C)c4o3)sc2c1 | inactive: 5.94% | –
COc1ccc(OC)c(NC(=O)CCNS(=O)(=O)c2ccc3c(c2)oc(=O)n3C)c1 | inactive: 6.61% | –
Nc1c(C(=O)NCc2ccc(Cl)cc2)sc2nc(-c3ccc(F)cc3)ccc12 | inactive: 2.35% | –
CCc1ccc(Nc2sc(C(=O)c3ccc(F)cc3)c(N)c2S(=O)(=O)c2ccccc2)cc1 | inactive: -7.93% | –
Cc1ccc(-n2ncc3c(NC4CCCCC4)ncnc32)cc1Cl | inactive: -25.6% | –
COc1ccc(CNC(=O)CCCn2nc(C)c3c(C)n(-c4ccc(C)cc4)nc3c2=O)cc1OC | inactive: -7.43% | –
CCOc1cc(CNC(=O)c2ccc3c(c2)N(C)C(=O)C2CCCCN32)ccc1OC (stereo unspecified) | inactive: 3.71% | –
O=C(CNC(=O)c1ccc(F)cc1)OCc1cc(=O)n2nc(C3CCCCC3)sc2n1 | inactive: 12.4% | –
COc1ccc(OC)c(NC(=O)CN2CCCN(Cc3ccccc3Cl)S2(=O)=O)c1 | inactive: -3.94% | –
O=C(CN1C(=O)COc2ccc(S(=O)(=O)N3CCCCCC3)cc21)N1CCN(c2ccccc2F)CC1 | inactive: 22.2% | –
CCOc1ccc(CNC(=O)CCS(=O)(=O)c2cc3c4c(c2)CCN4C(=O)CC3)cc1OC | inactive: -22.4% | –
O=C(c1ccc2c(Cl)c3c(nc2c1)CCCC3)N1CCN(c2cccc(C(F)(F)F)c2)CC1 | inactive: 2.08% | –
CCN(c1ccccc1)c1nnc(NC(=O)Nc2ccc(Br)c(C)c2)s1 | inactive: 0.597% | –
O=C(CSc1nccn1Cc1ccco1)Nc1cc(C(F)(F)F)ccc1Cl | inactive: -10.6% | –
CCN1CCN(C(c2ccccc2Cl)c2c(O)cc(C)n(Cc3ccco3)c2=O)CC1 (stereo unspecified) | inactive: -1.4% | –
Cn1c(=O)c2c(ncn2Cc2ccc(Cl)cc2)n(C)c1=O | inactive: -9.53% | –
O=C(Cn1c(=O)n2nc(-c3cccc(F)c3)nc2c2ccccc21)N1CCN(c2ccc(F)cc2)CC1 | inactive: -2.1% | –
COc1ccccc1CNC(=O)CCn1cnc2ccccc2c1=O | inactive: -25.1% | –
O=C(NC1CC(=O)N(c2ccc(F)cc2)C1)c1ccc2c(c1)OCO2 (stereo unspecified) | inactive: 3.49% | –
Cc1cccc(N2CCN(C(=O)c3noc4c3CCCCC4)CC2)c1C | inactive: -12.3% | –
Cc1cc(C(=O)C(=O)Nc2nncs2)c(C)n1-c1ccc(Cl)cc1 | inactive: -12.3% | –
COc1ccccc1NC(=O)c1cn(-c2ccccc2)nc1-c1ccccc1 | inactive: -8.56% | –

SMILES | activity change, negative = cytotoxicity | Potency
CC(NC(=O)c1ccc(F)cc1)c1nc2ccccc2[nH]1 (stereo unspecified) | inactive: 7.75% | –
CCc1ccc(NC(=O)Cn2c(=O)n(-c3cc(OC)c(OC)c(OC)c3)c(=O)c3ccccc32)cc1 | inactive: -0.0103% | –
COc1ccc(N2CCN(C(=O)CNS(=O)(=O)c3ccc(Br)s3)CC2)cc1 | inactive: 5.79% | –
N#Cc1nc(/C=C/c2ccc(F)cc2)oc1NCc1ccc(F)cc1 | inactive: 1.04% | –
Oc1ccc(-c2nc3ccc(Cl)cn3c2Nc2ccc3c(c2)OCO3)cc1 | inactive: 18.4% | –
Cc1ccc(-n2c(=O)c3c(C)c(C)sc3n(Cc3ccc(F)cc3Cl)c2=O)cc1C | inactive: -0.535% | –
COc1ccc(CCNC(=O)Cc2c(C)c3cc4c(C)coc4cc3oc2=O)cc1OC | inactive: 20.1% | –
COc1ccc(N(C(=O)c2ccccc2)S(=O)(=O)c2ccc3c(c2)n(C)c(=O)n3C)cc1 | inactive: -3.89% | –
O=C(NCc1ccc(Cl)cc1)C1CCN(S(=O)(=O)c2ccccc2)CC1 | inactive: -24% | –
O=C1CC(=O)Nc2cc(S(=O)(=O)N3CCOc4ccc(Cl)cc43)ccc2N1 | inactive: -15.4% | –
Cc1cc(C)c(NS(=O)(=O)c2ccc(-c3coc(C)n3)cc2)c(C)c1 | inactive: 3.02% | –
COc1cc(C(=O)NCc2nc3cccnc3n2Cc2ccc(C)cc2)cc(OC)c1OC | inactive: 0.0312% | –
CC(=O)c1ccc(NC(=O)Cn2ncc3c4ccccc4n(Cc4ccccc4)c3c2=O)cc1 | inactive: 16.3% | –
CCc1ccc(S(=O)(=O)NCc2nc3cccnc3n2Cc2cccc(OC)c2)cc1 | inactive: 2.28% | –
CCCCCn1c(CNC(=O)c2ccccc2)nc2ccccc21 | inactive: -0.479% | –
CCOc1ccc(NC(=O)Cn2c(=O)n(CCCCC(=O)NCc3ccc4c(c3)OCO4)c(=O)c3ccccc32)cc1 | inactive: -17% | –
CCN(CC)c1ccc(-n2nc3cc(C)c(NC(=O)c4ccccc4C)cc3n2)c(C)c1 | inactive: 1.38% | –
Cc1cc(C)c(S(=O)(=O)N2CCN(Cc3ccc4c(c3)OCO4)CC2)cc1C | inactive: -2.97% | –
Cc1c(Cl)cccc1Nc1nn2c(=O)c3ccc(C(=O)NCCC4=CCCCC4)cc3nc2s1 | inactive: -28.1% | –
COc1ccc(C2C(C(=O)Nc3ccc(C)cc3C)=C(C)Nc3nc(SCc4cccc(C)c4)nn32)c(OC)c1 (stereo unspecified) | inactive: 0.989% | –
Cc1ccc(C)c(N(C)C(=O)Cc2c(C(=O)O)[nH]c3ccc(Cl)cc23)c1 | inactive: 17.4% | –
CC(C)(C)CC(C)(C)c1ccc(OCC(=O)Nc2ccc(S(=O)(=O)Nc3ncccn3)cc2)cc1 | inactive: -29.4% | –
CC1=C(C(=O)Nc2ccc(C)cc2C)C(c2ccc(Br)cc2)n2ncc(C(=O)Nc3cccc(C)c3)c2N1 (stereo unspecified) | inactive: 3.4% | –
COc1ccccc1CNC(=O)CSc1nc(=O)[nH]c2c1CCC2 | inactive: 7.35% | –

SMILES | activity change, negative = cytotoxicity | Potency
COc1ccccc1-c1nn2c(=O)cc(CN3CCN(C(=O)/C=C/c4ccccc4)CC3)nc2s1 | inactive: -25.6% | –
COc1cccc(CNC(=O)CN2C(=O)N(c3cccc(Cl)c3)S(=O)(=O)c3ccccc32)c1OC | inactive: 14% | –
Cc1ccccc1NC(=O)Cn1nnc(C(=O)NCCc2ccccc2)c1N | inactive: 8.83% | –
CCc1nn2c(=O)c(S(=O)(=O)Nc3ccc(Br)cc3F)c(C)nc2s1 | inactive: 0.976% | –
COc1ccc(C2C=C(c3ccc(Br)cc3)Nc3nnnn32)c(OC)c1 (stereo unspecified) | inactive: 0.538% | –
COc1ccc(Nc2cc(C(=O)NC3CCCC3)c3ccccc3n2)cc1 | inactive: -8.97% | –
COc1ccccc1CNc1nc2c(S(=O)(=O)c3ccccc3)nnn2c2ccc(Cl)cc12 | inactive: -20% | –
Cc1ccc(NC(=O)c2c(NC(=O)c3ccccc3Cl)sc3c2CCC3)cc1 | inactive: 7.01% | –
O=C(CSc1nccn1Cc1ccc(F)cc1)NCc1ccc(F)cc1 | inactive: 8.36% | –
CN1CCN(C(=O)Cn2ncc3c4ccccc4n(Cc4ccc(Cl)cc4)c3c2=O)CC1 | inactive: 4.47% | –
Cc1cc(C)c(NC(=O)c2c(C)nn(-c3ccc(F)cc3)c2-n2cccc2)c(C)c1 | inactive: 0.0793% | –
O=C(CCSCc1ccc(Cl)cc1)NCc1ccc(F)cc1Cl | inactive: 1.62% | –
CS(=O)(=O)N1CCc2cc(C(=O)N3CCN(c4ccccc4F)CC3)ccc21 | inactive: -13.5% | –
CSc1nc(=O)c2c(n1C)NC(=O)CC2c1cc(F)cc(F)c1 (stereo unspecified) | inactive: 2.4% | –
CC(=O)c1cccc(NC(=O)Cn2nc(C(F)(F)F)c3c2CCC3)c1 | inactive: 28% | –
NC(=O)c1nn2c(C(F)(F)F)cc(-c3ccc(Br)cc3)nc2c1Cl | – | active: 28.2 µM
CC1=C(C(=O)OCc2ccc(C)cc2)C(c2cccc(F)c2F)CC(=O)N1 (stereo unspecified) | inactive: 17.3% | –
COc1ccc(-c2cc(C(F)(F)F)n3nc(C(=O)Nc4cc(C)ccc4C)cc3n2)cc1 | inactive: 4.38% | –
Cc1ccc2c(c1)c1c3n2CCN(C(=O)c2ccc(C(F)(F)F)cc2)C3CCC1 (stereo unspecified) | inactive: 6.18% | –
COc1ccc(CCNC(=O)c2cc3c(=O)oc4ccc(C)cc4c3s2)cc1OC | inactive: 18.2% | –
CCNC(=O)c1cc2n(n1)CCCN(Cc1ccc(C)cc1)C2=O | inactive: -1.93% | –
COc1ccc(OCC(=O)Nc2ccc3nn(-c4ccc(OC)cc4)nc3c2)cc1 | inactive: -1.03% | –
O=C(C1CCN(c2ncnc3c2nc2n3CCCCC2)CC1)N1CCN(c2ccc(Cl)cc2)CC1 | inactive: 1.09% | –
Cc1nn(C(=O)c2cccc(F)c2)c(C)c1S(=O)(=O)N1CCOCC1 | inactive: 7.69% | –
